Results published in PubChem BioAssay AID493208 (National Center for Advancing Translational Sciences (NCATS), 2011).
In all, about 44,000 compounds went through this assay and about 340 (0.77%) were called active. Not shown: some 5% with an inconclusive outcome. The call rests on the fitted dose curve; in most records, active means well fitted inhibition curve with a large enough effect; inconclusive means small, poorly fitted or top-dose-only effect; inactive means flat fitted curve, though single readings scatter. The list shows a part of the results.

experiment: Acumen qHTS Assay for Inhibitors of the mTORC1 Signaling Pathway in MEF (Tsc2-/-, p53-/-) Cells: Sytravon; settings: phospho-rpS6 immunofluorescence/PI, 24 h; series mostly up to 38.3 µM; activity change, negative = inhibition: at the top concentration;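 further: plate controls were DMSO for no effect and rapamycin for full effect; nearly all actives have a fitted effect of over 50% in size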
How it was run: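 Immunofluorescence of rpS6 phosphorylation in Tsc2-/-, p53-/- MEFs after 24 h compound exposure, normalized to propidium iodide signal. Activity is expressed as % positive cells, thresholded with 7.5 nM rapamycin.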

Activity change, negative = inhibition, inactive:
CC1=C(C(=O)Nc2cccnc2)C(c2ccc(F)cc2)n2nc(SCc3ccccc3F)nc2N1 (stereo not given) -2.02%
CCN(C(=O)c1cc2c(Cl)nc3ccccc3c2s1)c1cccc(Cl)c1 -4.31%
CCOC(=O)c1cnc2c(C)c(Cl)ccc2c1Nc1ccc(C)cc1C 17.4%
CN1c2cc(Cl)ccc2-c2nc(SCC(=O)Nc3ccc(F)cc3F)ncc2S1(=O)=O -7.25%
COc1cc(NC(=O)CN(C)S(=O)(=O)c2ccc3[nH]c4c(c3c2)CCCC4)cc(OC)c1OC -1.2%
CCOC(=O)N1CCc2c(sc(NCc3ccc(OCC)cc3)c2C(=O)Nc2ccc(OC)cc2OC)C1 -2.51%
O=C(NC1CCCC1)c1ccc(CSc2nc3ccncc3n2Cc2ccccc2F)cc1 1.26%
COc1ccccc1C(=O)NCc1ccc2c(c1)CCN2C(=O)c1ccncc1 4.84%
CCOC(=O)C1CCCN(C(=O)C2CCN(c3nnc(C)c4c(C)n(-c5ccccc5)nc34)CC2)C1 (stereo not given) -0.133%
Cc1cc(NC(=O)CSc2nc3c([nH]c4ccccc43)c(=O)n2-c2cccc(Cl)c2)no1 -0.428%
Clc1ccc(-c2noc3ncnc(NCCCN4CCN(c5ccccc5)CC4)c23)cc1 -1.05%
CCOc1ccccc1NC(=O)C(Cc1ccccc1)NS(=O)(=O)c1ccc(Br)s1 (stereo not given) -4.49%
Cc1ccc(C)c(N2CCN(C(=O)C3CCN(S(=O)(=O)c4cn(C)cn4)CC3)CC2)c1 0%
CCc1ccc(CNC(=O)C(CC)n2ccc3cc(S(=O)(=O)N4CCCCC4)ccc32)cc1 (stereo not given) -7.38%
COc1ccc(CNS(=O)(=O)c2cc(C(=O)Nc3cc(Cl)cc(Cl)c3)ccc2F)cc1 5.62%
CCOC(=O)Cn1c(=O)oc2cc(S(=O)(=O)Nc3cc(OC)cc(OC)c3)ccc21 -1.32%
COc1ccccc1C(=O)NCc1ccc2c(c1)CCN2C(=O)c1cccc(C)c1 1.45%
COc1ccc(N2CCN(C(=O)C3CCN(S(=O)(=O)c4cnc[nH]4)CC3)CC2)cc1 0.208%
CCc1ccccc1Nc1nn2c(=O)c3ccc(C(=O)NCc4cccs4)cc3nc2s1 -5.97%
CCn1c(C)c(C)c2cc(C(=O)NCCc3cc(OC)c(OC)c(OC)c3)ccc21 -2.59%
CCc1ccc(S(=O)(=O)c2nnn3c2nc(NCc2cccs2)c2sccc23)cc1 -1.81%
CN1CCN(C(c2ccc(F)cc2)c2sc3nc(-c4ccco4)nn3c2O)CC1 (stereo not given) 0.0155%
Cc1cccc(C(=O)Nc2cccc(C(=O)OCc3cc(=O)n4c5c(sc4n3)CCCC5)c2)c1 0%
COc1ccc(-c2c3c(=O)n(C)c(=O)n(C)c3c3c(-c4ccccc4)nc4ccccc4n23)cc1 0.798%
O=C(Nc1ccccc1F)C(Cc1ccccc1)n1cccc1 (stereo not given) -2.08%
COc1ccc(Cn2c(C(=O)O)c(CNCc3cccs3)c3ccc(C)cc32)cc1 -9.41%
CNC(=O)c1cc2c(n(-c3ccc(C)cc3)c1=O)CC(C)(C)CC2=O -4%
O=C(Nc1ccc2nc(SCC(=O)N3CCOCC3)sc2c1)c1ccc(F)cc1 2%
COc1cccc(C(=O)Nc2ccc3oc(-c4ccc5ccccc5c4)nc3c2)c1 -2.49%
COc1cc(OC)cc(-c2nc3nc(C)c(CCC(=O)Nc4ccc(Cl)cc4)c(C)n3n2)c1 2.25%
CCCn1cnc2cc(NCc3ccc(OC)cc3OC)ccc21 -17.9%
Cc1cc(=O)oc2cc(OCC(=O)Nc3ccc(O)c(C(=O)O)c3)ccc12 -10.5%
CCOc1ccc(CC(=O)N2CCc3cc(OC)c(OC)cc3C2COc2ccc3c(C)cc(=O)oc3c2)cc1 (stereo not given) -19.4%
CC(C)CNS(=O)(=O)c1ccc(N2CCCCS2(=O)=O)cc1 3.64%
CCOc1ccc(NC(=O)CCc2c(C)nc3cc(-c4ccc(Cl)cc4)nn3c2C)cc1 1.6%
CCCCCn1c(=O)[nH]c2cc(C(=O)NCc3ccccc3)ccc2c1=O -5.77%
Cc1ccc(CNC(=O)CS(=O)(=O)Cc2nc(-c3ccccc3C)oc2C)cc1 -0.515%
CCCOc1ccc(NC(=O)C(=O)NCCCN2CCOCC2)cc1 -20.1%
Cc1cccc(Cn2c(SCc3ccc(C(=O)NC4CCCC4)cc3)nc3ccncc32)c1 -3.79%
COc1ccc(CNC(=O)Cc2c(C)c3c(cc(C)c4c(C)c(C)oc43)oc2=O)cc1OC -0.84%
Cc1cccc(-c2noc(CNC(=O)c3ccccc3Br)n2)c1 -3.6%
Cc1ccc(NC(=O)c2sc(-n3nc(C)c(Cc4ccc5c(c4)OCO5)c3C)nc2C)cc1Cl 0.332%
Cc1cccc(NC(=O)C2CCN(c3cnccn3)CC2)c1 -4.84%
COc1ccc(Cn2c(=O)c3ccccc3n3c(-c4cccc(OC)c4OC)nnc23)cc1 0.0043%
COc1ccc(CC(=O)Nc2ccc3nc(N4CCCCC4)cc(C)c3c2)cc1 0%
CC1CCN(S(=O)(=O)c2ccc3c(c2)oc(=O)n3CC(=O)O)CC1 -6.71%
CCOC(=O)c1c(NC(C)=O)c2c3c(sc2n1Cc1nc(-c2ccccc2Cl)oc1C)CCCC3 -5.65%
Cc1ccc(CNC(=O)c2cc3c(s2)-c2c(C)cccc2OC3)cc1 -4.95%
COc1ccc2c(c1)c1c(c(=O)n(Cc3ccccc3)c(=O)n1CC(=O)NCc1ccccc1)n2C 4.04%
Cc1cc(C)cc(NC(=O)N2CCN(c3cc(-c4noc(C)n4)ccc3C)CC2)c1 -1.07%
CCOCCCNC(=O)c1ccc(-n2c(-c3ccccc3)cc3c2CCCCC3)cc1 -8.07%
CCC(=O)N1CCc2cc(Br)cc(S(=O)(=O)CCC(=O)Nc3cccc(C)c3C)c21 -23.1%
COc1ccccc1NC(=O)c1sc2nc3c(cc2c1N)CN(Cc1ccccc1)CC3 -6.83%
O=C(CSc1nc(=O)[nH]c2c1CCCC2)NCc1ccc(F)cc1 -3.47%
CCOC(=O)c1c(C)c(-c2ccccc2)n(CC(=O)NCCc2cccc(C)c2)c1C -1.06%
COCCn1c(C)cc(O)c(C(c2ccc(F)cc2)N2CCN(c3ccccc3)CC2)c1=O (stereo not given) 9.64%
COc1ccc(CC(=O)NCCS(=O)(=O)N2CCN(c3ccc(F)cc3)CC2)cc1OC -0.0481%
N#Cc1ccccc1Cn1cnc2nc3c(cc2c1=O)CCCC3 -10.6%
CCc1nc(C)cn1S(=O)(=O)c1ccc(Cl)c(Cl)c1OC -16.7%
Cc1nnc2c(N3CCN(c4ccccc4F)CC3)nc3ccc(C(=O)c4ccccc4)cc3n12 0%
